Test results: PubChem BioAssay AID1347120 (National Center for Advancing Translational Sciences (NCATS), 2019)
About 930 (0.24%) of roughly 390,000 compounds were called active. This list was built around the results that the source calls inconclusive (neither active nor inactive); the mix of calls is not that of the screen. The call rests on the fitted dose curve; in most records, active means well fitted activation curve with a large enough effect; inconclusive means small, poorly fitted or top-dose-only effect; inactive means no such curve, though single readings can be large or run the other way. A potency beside an inconclusive call is a rough fit, not a confirmed value.

Assay: qHTS for Suppressors of FUS Proteinopathy: Primary screen using FUS-linked yeast assay; further: nearly all actives have a fitted effect of over 55% in size;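 on growth rescue (activation): plate controls were DMSO vehicle for no effect and reference control for full effect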
Settings: S. cerevisiae FUS-expressing, OD600, 24 h; Potency: growth rescue; growth rescue (activation): at 76.6 µM (top of the series)
Procedure, shortened: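 Steps: raffinose overnight preculture; dilution to OD 0.005 in 2% galactose minimal medium; compound addition (concentration series); 24hr at 30C, 99% humidity; absorbance read at 600 nm.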
Potency means the concentration at half of the fitted maximal effect; tags describe the fitted curve by direction and shape.

Compound | Potency | growth rescue (activation)
Cc1nn(CCC(=O)N2CCN(c3ccccc3)CC2)c(C)c1S(=O)(=O)N1CCCC1 | inactive | –
c1coc(CN(Cc2ccco2)c2ncnc3c2oc2ccccc23)c1 | inconclusive: 50.1 µM [activator, single point] | –
c1ccc(-c2ccc(-c3nc(-c4ccccn4)no3)cc2)cc1 | inactive | –
O=C(Nc1cc(S(=O)(=O)N2CCCCC2)ccc1N1CCCCC1)c1ccncc1 | inconclusive: 28.2 µM [activator, partial curve, poor fit] | –
O=C(C1=NN[C@@H]2C(=O)N(c3ccccc3C(F)(F)F)C(=O)[C@H]12)C(c1ccccc1)c1ccccc1 | inconclusive: 28.2 µM [activator, single point] | –
N#Cc1ncc(Cc2ccccc2)nc1C#N | inactive | –
COCCCNc1ccn2nc(-c3cccc(OCc4ccccc4)c3)cc2n1 | inconclusive: 50.1 µM [activator, single point] | –
CCOc1cc(C(=O)NCCc2csc(-c3ccc(C)cc3)n2)cc(OCC)c1OCC | inactive | –
Oc1ccccc1C1=NN(c2ccccc2)C(c2ccccc2)C1 (centres undefined) | inconclusive: 8.91 µM [activator, partial curve] | –
CCCn1c(SCC(=O)Nc2cccc(S(=O)(=O)NC3=NCCCCC3)c2)nc2ccccc2c1=O | inconclusive: 50.1 µM [activator, single point] | –
O=C(CSc1nnc(COc2ccccc2)n1Cc1ccco1)Nc1ccc(OCc2ccccc2)cc1 | inactive | –
COc1ccc(OC)c(-c2nn(-c3ccccc3)cc2C(=O)N2CCc3ccccc3C2)c1 | inconclusive: 20 µM [activator, partial curve] | –
CC(C)C[C@@H](CNC(=O)OC(C)(C)C)NC(=O)c1nc[nH]c1C(=O)N[C@@H](CC(C)C)C(=O)CNC[C@H](CC(C)C)NC(=O)c1nc[nH]c1C(=O)N[C@@H](Cc1c[nH]c2ccccc12)C(=O)OC(C)(C)C | inconclusive: 12.6 µM [activator, partial curve, poor fit] | –
COCCNCCCOc1ccc(C(C)(C)c2ccccc2)cc1 | inactive | –
CCOC(=O)N1CCC(NC(=O)c2ccc3c(c2)N(Cc2cc(C)ccc2C)C(=O)c2ccccc2S3=O)CC1 (centres undefined) | inconclusive: 31.6 µM [activator, partial curve, poor fit] | –
COc1cc(-c2cc(NC=O)c3ncc(-c4ccc(F)cc4)n3c2)cc(OC)c1OC | inconclusive: 28.2 µM [activator, single point] | –
Cn1ncc(Cl)c1C(=O)N1CCN(C23CC4CC(CC(C4)C2)C3)CC1 | – | inconclusive: -85.3% [activator]
COC(=O)CCC(=O)OC1(C)C(=O)C2=CN(c3ccc(OC)cc3)C(c3ccc(OC)cc3)=CC2=C(Br)C1=O (centres undefined) | inconclusive: 25.1 µM [activator, single point] | –
CCOC(=O)C(C)n1cnc2scc(-c3ccc(C)c(C)c3)c2c1=O (centres undefined) | inconclusive: 35.5 µM [activator, single point] | –
CN=C1S/C(=C/c2cc(C)n(-c3cc(C)ccc3OC)c2C)C(=O)N1C | inconclusive: 22.4 µM [activator, single point] | –

Compound | Potency | growth rescue (activation)
Cc1ccc(Cl)cc1N1CCN(C(=O)C2CCN(S(=O)(=O)c3ccc4c(c3)oc(=O)n4C)CC2)CC1 | inconclusive: 28.2 µM [activator, partial curve, poor fit] | –
Nc1ccc2nc(CN3CCOCC3)[nH]c2c1 | inactive | –
COC(=O)[C@H](CC(C)C)N(Cc1ccccc1)S(=O)(=O)N(Cc1ccccc1)[C@@H](CC(C)C)C(=O)OC | inactive | –
Cc1ccc(-c2nn(-c3ccccc3)cc2C2CC(c3cccs3)=NN2C(=O)CCCC(=O)O)cc1 (centres undefined) | inconclusive: 35.5 µM [activator, single point] | –
CCOc1cc(/C=N/NC(=O)COc2ccc(C)cc2)ccc1OC(=O)c1cccs1 | inactive | –
O=C1Nc2ccccc2N=C(c2ccc3c(c2)OCO3)C1N(C(=O)c1ccnc2ccccc12)c1ccccc1 (centres undefined) | inconclusive: 10 µM [activator, partial curve] | –
COc1ccc(NC(=O)C2CCCN(S(=O)(=O)c3cccs3)C2)cc1 (centres undefined) | inactive | –
CC1Cc2cc(S(=O)(=O)N(C)c3ccc(Br)cc3)ccc2N1C(=O)C1CC1 (centres undefined) | inconclusive: 15.8 µM [activator, partial curve] | –
COc1cccc(N2CCN(c3nc(-c4ccccc4C)cc(=O)[nH]3)CC2)c1 | inconclusive: 31.6 µM [activator, single point] | –
COc1cccc(NC(=O)N2CCN(c3nc(-c4cccc(OC)c4)cs3)CC2)c1 | inconclusive: 17.8 µM [activator, partial curve, poor fit] | –
CC(=O)N1N=C(c2ccc(Cl)cc2)CC1c1ccc([N+](=O)[O-])cc1 (centres undefined) | inactive | –
O=C(N/N=C/c1ccc([N+](=O)[O-])cc1)c1cccnc1 | inconclusive: 0.891 µM [activator, full curve, poor fit] | –
O=C1C2=C(Nc3ccccc3SC2c2ccccc2C(F)(F)F)c2ccccc21 (centres undefined) | inactive | –
Cc1ccccc1NC(=O)c1ccc(F)c(S(=O)(=O)N(C)C2CCCCC2)c1 | inconclusive: 3.16 µM [activator, full curve] | –
Cc1ccc(C)c(CN2C(=O)c3ccccc3S(=O)c3ccc(C(=O)N4CCN(c5ccccn5)CC4)cc32)c1 (centres undefined) | inconclusive: 14.1 µM [activator, partial curve, poor fit] | –
O=C(N/N=C/c1ccc([N+](=O)[O-])o1)c1cc(-c2ccc(-c3ccccc3)cc2)nc2ccccc12 | inconclusive: 2.24 µM [activator, full curve, poor fit] | –
O=C(O)C1CCN(C(=O)c2ccccc2N2C(=O)[C@@H]3Cc4c([nH]c5ccccc45)C(c4cccc(Cl)c4)N3C2=O)CC1 (some centres undefined) | active: 12.6 µM | –
c1ccc(-n2c(-c3ccco3)nnc2-c2ccco2)cc1 | inactive | –
O=C(CSc1nnc(-c2ccccc2)n1Cc1ccco1)Nc1ccccc1-c1ccccc1 | inconclusive: 35.5 µM [activator, partial curve, poor fit] | –
